# The shares of active, inactive and inconclusive entries below differ from those in the screen. A potency beside an inconclusive call is a rough fit, not a confirmed value. The source made the active and inactive calls. Calls follow the shape of the dose curve; as a rule, active = well fitted inhibition curve with a large enough effect; inconclusive = small, poorly fitted or top-dose-only effect; inactive = flat fitted curve, though single readings scatter.
# Experiment: P-glycoprotein substrates identified in KB-8-5-11 adenocarcinoma cell line, qHTS therapeutic library screen (AID 1346987); also: nearly all actives have a fitted effect of over 65% in size
# Settings: KB-8-5-11 (P-gp overexpressing) viability, CellTiter-Glo, 72 h; series mostly up to 44.5 µM
# In short: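 KB-8-5-11, a colchicine-selected P-gp-overexpressing KB-3-1 subline, was grown without colchicine for the assay. Cells were seeded at 500 cells/well, dosed in concentration-response and incubated 72 h at 37 degree C, 5% CO2. Viability was read by CellTiter-Glo luminescence.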
# Potency is read from the fitted curve at half-maximal effect; tags tell the direction and shape of the fitted curve.
row,Structure (SMILES),Potency
1,O=C(C[C@@H]1NCCC[C@H]1O)Cn1cnc2ccccc2c1=O,active: 0.259 µM
2,CN=C(NS(=O)(=O)c1ccc(Cl)cc1)N1C[C@H](c2ccccc2)C(c2ccc(Cl)cc2)=N1,"inconclusive: 20.6 µM [inhibitor, single point]"
3,C[C@@H](CN1CCC2(CC1)C(=O)NCN2c1cccc(F)c1)NC(=O)c1ccc(Br)cc1,"inconclusive: 29.1 µM [inhibitor, single point]"
4,CN1Cc2c(ccc3c2OCO3)[C@@H]2[C@H]1c1cc3c(cc1C[C@@H]2O)OCO3,active: 1.61 µM
5,CC(C)=CCN1CC[C@@]2(C)c3cc(O)ccc3C[C@@H]1[C@@H]2C,"inconclusive: 35.5 µM [inhibitor, single point]"

# From PubChem BioAssay (NCATS)
